The target in the series is Escherichia coli (laboratory strain). Description: barcode share on antibiotic plates over drug-free plates; higher = less susceptible. Particulars: antibiotic: gentamicin; 2× MIC (MIC 0.45 µg/mL). As for the experimental part:
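A pool of E. coli strains, each edited to carry one amino-acid change in an essential protein, was grown for 48 h on minimal glucose agar with or without antibiotic; strain barcodes were sequenced; mean of two replicates.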

Substitutions are numbered along the chain they refer to. Names may count otherwise. ± gives the standard deviation of the averaged measurements. Laboratory Escherichia coli strains with one amino-acid change in an essential protein, pooled on minimal glucose agar with carbenicillin or gentamicin at twice the control MIC (plus kanamycin and chloramphenicol for the plasmids), 48 h. Fold change of barcode share against drug-free plates; higher = less susceptible. Active = above 20 in both replicates (the paper's putatively resistant). '<' = one read or none on drug, '>' = one read or none on a drug-free plate. Shares are relative, so most strains fall below 1 when a few take over. Listed are strains with at least 15 reads on both drug-free plates, and hits; most hits rest on fewer reference reads. Replicate rank correlation about 0.5. Edits are read from barcodes. A value given as a limit tells only on which side of the number the result lay.

B1: murG V99A (protein)
chain: MSGQGKRLMVMAGGTGGHVFPGLAVAHHLMAQGWQVRWLGTADRMEADLVPKHGIEIDFIRISGLRGKGIKALIAAPLRIFNAWRQARAIMKAYKPDVALGMGGYVSGPGGLAAWSLGIPVVLHEQNGIAGLTNKWLAKIATKVMQAFPGAFPNAEVVGNPVRTDVLALPLPQQRLAGREGPVRVLVVGGSQGARILNQTMPQVAAKLGDSVTIWHQSGKGSQQSVEQAYAEAGQPQHKVTEFIDDMAAAYAWADVVVCRSGALTVSEIAAAGLPALFVPFQHKDRQQYWNALPLEKAGAAKIIEQPQLSVDAVANTLAGWSRETLLTMAERARAASIPDATERVANEVSRVARA
For the protein B1, the “fold change of barcode share” value turned out to be 0.0491 ± 0.063.

B2: murG V99Q (protein)
chain: B1 chain with A99Q
With B2, the “fold change of barcode share” value came to 0.015 ± 0.0076.

B3: murG V121D (protein)
chain: B1 chain with A99V, V121D
Turning to B3, the “fold change of barcode share” value is under 0.00399.

B4: murG V121A (protein)
chain: B1 chain with A99V, V121A
Take B4: the “fold change of barcode share” value amounted to 0.00569 ± 0.0019.

B5: mukE V95Q (protein)
chain: MSSTNIEQVMPVKLAQALANPLFPALDSALRSGRHIGLDELDNHAFLMDFQEYLEEFYARYNVELIRAPEGFFYLRPRSTTLIPRSVLSELDMMQGKILCYLYLSPERLANEGIFTQQELYDELLTLADEAKLLKLVNNRSTGSDVDRQKLQEKVRSSLNRLRRLGMVWFMGHDSSKFRITESVFRFGADVRAGDDPREAQRRLIRDGEAMPIENHLQLNDETEENQPDSGEEE
Regarding B5, the “fold change of barcode share” value is under 0.0161.

B6: mukE L109P (protein)
chain: B5 chain with Q95V, L109P
Turning to B6, the “fold change of barcode share” value is under 0.0195.

B7: murC V137Q (protein)
chain: MNTQQLAKLRSIVPEMRRVRHIHFVGIGGAGMGGIAEVLANEGYQISGSDLAPNPVTQQLMNLGATIYFNHRPENVRDASVVVVSSAISADNPEIVAAHEARIPVIRRAEMLAELMRFRHGIAIAGTHGKTTTTAMQSSIYAEAGLDPTFVNGGLVKAAGVHARLGHGRYLIAEADESDASFLHLQPMVAIVTNIEADHMDTYQGDFENLKQTFINFLHNLPFYGRAVMCVDDPVIRELLPRVGRQTTTYGFSEDADVRVEDYQQIGPQGHFTLLRQDKEPMRVTLNAPGRHNALNAAAAVAVATEEGIDDEAILRALESFQGTGRRFDFLGEFPLEPVNGKSGTAMLVDDYGHHPTEVDATIKAARAGWPDKNLVMLFQPHRFTRTRDLYDDFANVLTQVDTLLMLEVYPAGEAPIPGADSRSLCRTIRGRGKIDPILVPDPARVAEMLAPVLTGNDLILVQGAGNIGKIARSLAEIKLKPQTPEEEQHD
On to B7, for which the “fold change of barcode share” value was under 0.0116.

B8: murC V401P (protein)
chain: B7 chain with Q137V, V401P
Consider B8, for which the “fold change of barcode share” value is under 0.014.

B9: murD V211A (protein)
chain: MADYQGKNVVIIGLGLTGLSCVDFFLARGVTPRVMDTRMTPPGLDKLPEAVERHTGSLNDEWLMAADLIVASPGIALAHPSLSAAADAGIEIVGDIELFCREAQAPIVAITGSNGKSTVTTLVGEMAKAAGVNVGVGGNIGLPALMLLDDECELYVLELSSFQLETTSSLQAVAATILNVTEDHMDRYPFGLQQYRAAKLRIYENAKVCVANADDALTMPIRGADERCVSFGVNMGDYHLNHQQGETWLRVKGEKVLNVKEMKLSGQHNYTNALAALALADAAGLPRASSLKALTTFTGLPHRFEVVLEHNGVRWINDSKATNVGSTEAALNGLHVDGTLHLLLGGDGKSADFSPLARYLNGDNVRLYCFGRDGAQLAALRPEVAEQTETMEQAMRLLAPRVQPGDMVLLSPACASLDQFKNFEQRGNEFARLAKELG
On to B9, for which the “fold change of barcode share” value is under 0.0107.

B10: murD V211D (protein)
chain: B9 chain with A211D
For the protein B10, the “fold change of barcode share” value is under 0.0147.

B11: murA M170A (protein)
chain: MDKFRVQGPTKLQGEVTISGAKNAALPILFAALLAEEPVEIQNVPKLKDVDTSMKLLSQLGAKVERNGSVHIDARDVNVFCAPYDLVKTMRASIWALGPLVARFGQGQVSLPGGCTIGARPVDLHISGLEQLGATIKLEEGYVKASVDGRLKGAHIVMDKVSVGATVTIACAATLAEGTTIIENAAREPEIVDTANFLITLGAKISGQGTDRIVIEGVERLGGGVYRVLPDRIETGTFLVAAAISRGKIICRNAQPDTLDAVLAKLRDAGADIEVGEDWISLDMHGKRPKAVNVRTAPHPAFPTDMQAQFTLLNLVAEGTGFITETVFENRFMHVPELSRMGAHAEIESNTVICHGVEKLSGAQVMATDLRASASLVLAGCIAEGTTVVDRIYHIDRGYERIEDKLRALGANIERVKGE
Turning to B11, the “fold change of barcode share” value is under 0.0206.

B12: murA M170W (protein)
chain: B11 chain with A170W
For the protein B12, the “fold change of barcode share” value was under 0.00927.

B13: murA M170Q (protein)
chain: B11 chain with A170Q
For the protein B13, the “fold change of barcode share” value worked out at 0.0142 ± 0.0087.

These data come from the supplement of paper PMC11876631.
